Source: PubChem BioAssay AID504832 (National Center for Advancing Translational Sciences (NCATS), 2011)
Screen size: about 310,000 compounds; about 18,000 (5.8%) were called active. The shares of active, inactive and inconclusive entries below differ from those in the screen. Calls follow the shape of the dose curve; as a rule, active = well fitted inhibition curve with a large enough effect; inconclusive = small, poorly fitted or top-dose-only effect, or another doubt; inactive = no such curve, though single readings can be large or run the other way. No potency is given beside an inconclusive call; the fits are too rough.

assay: Primary qHTS for delayed death inhibitors of the malarial parasite plastid, 48 hour incubation; details: P. falciparum luciferase growth in erythrocytes; series mostly up to 28.7 µM; activity change, negative = inhibition: at the top concentration
Method in brief: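 Luciferase-expressing parasites in RBCs, 2% Hct / 0.1% parasitemia final; RPMI 1640 + 0.5% Albumax; 37 C, 5% CO2, one generation; luminescence read-out, lower signal = inhibition.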
% is scaled to controls: 0 for no effect and ±100 for the full control effect; potency is read from the fitted curve at half-maximal effect; tags tell the direction and shape of the fitted curve.

| SMILES | Potency | activity change, negative = inhibition |
| --- | --- | --- |
| COc1ccc(Cc2nnc(SCC(=O)N3CCCC(C)C3)o2)cc1 (configuration not stated) | active: 7.38 µM |  |
| CC1CCC(NC(=O)c2cc(S(=O)(=O)N3CCCCC3)ccc2N2CCOCC2)CC1 (configuration not stated) | active: 9.28 µM |  |
| O=C(CN1C2CCCC1CC(NC(=O)c1ccccc1)C2)Nc1ccccc1C(F)(F)F (configuration not stated) | inconclusive [inhibitor, partial curve, poor fit] |  |
| Cc1ccnn1CC(=O)N/N=C/c1ccc([N+](=O)[O-])s1 | inconclusive [inhibitor, partial curve] |  |
| CCCCN1C[C@H](Cc2ccccc2)[C@@H](CC(=O)NCc2ccc(OC)cc2)C1=O | inconclusive [inhibitor, partial curve, poor fit] |  |
| Cc1cc(N2CCN(c3ccccc3)CC2)nc(NCc2ccccc2)n1 | inconclusive [inhibitor, single point] |  |
| COc1ccc(CNC(=O)CN(c2ccc(OC)c(Cl)c2)S(=O)(=O)c2ccc(C)cc2)cc1 | inconclusive [inhibitor, partial curve] |  |
| N#Cc1nc(Cc2ccccc2)oc1NCc1ccccc1Cl | inconclusive [inhibitor, full curve, poor fit] |  |
| OCCCc1nc2n(n1)C(c1ccccc1Cl)C=C(c1cccs1)N2 (configuration not stated) | inconclusive [inhibitor, single point] |  |
| Cn1ccnc1C(=O)c1cc(=O)c2ccccc2o1 |  | inactive: 13.4% |
| CCNS(=O)(=O)c1cccc(C(=O)c2c(C)cc3ccccn23)c1 |  | inactive: -19% |
| CCN(CC)CCCNC(=O)c1cc(-c2ccc(Cl)cc2)on1 | inconclusive [inhibitor, single point] |  |
| Cn1c(=O)[nH]c(=O)c2c1nc(N1CCCCC1)n2CCCSc1nc2ccccc2s1 | inconclusive [inhibitor, partial curve, poor fit] |  |
| COc1cccc(CN2CCN(Cc3cccc(Oc4ccccc4)c3)CC2)c1OC |  | inactive: 10.2% |
| O=C(CO/N=C1\CCCc2nonc21)Nc1ccccc1Cl | inconclusive [inhibitor, single point] |  |
| Nc1nccc(-c2cccs2)n1 | inconclusive [inhibitor, single point] |  |
| Cc1ccc(C(=O)NNC(=O)c2ccncc2)cc1S(=O)(=O)N1CCCCC1 | inconclusive [inhibitor, single point] |  |
| O=C(Cn1cnc2c(nnn2Cc2ccc(Cl)cc2)c1=O)NC1CCCC1 | inconclusive [inhibitor, partial curve, poor fit] |  |
| CC(C)(C)Nc1nc(Nc2ccc([N+](=O)[O-])cc2)nc(NC(C)(C)C)n1 | inconclusive [inhibitor, single point] |  |
| CC(C)=C[C@@H]1C[C@H](C)[C@H]2CC[C@H](C)c3c(O)c(O)c(C)c1c32 | active: 3.7 µM |  |
| CCC[N+](CC#Cc1ccccc1)(CCC)CC(=O)c1ccc(Cl)cc1 | inconclusive [inhibitor, single point] |  |
| Cc1ccc(-c2cc3nn(-c4ccccc4)c(N)c3c(=O)o2)cc1 |  | inactive: 33.7% |
| Cc1ccc(Nc2c(N)c(=O)oc3ccccc23)cc1 | inconclusive [inhibitor, single point] |  |
| COc1ccc2c(c1)C(=O)N1[C@H]3c4cc(OC)ccc4OC[C@@H]3[C@H](c3ccccc3)[C@]1(C)C(=O)N2 | active: 13.1 µM |  |

| SMILES | Potency | activity change, negative = inhibition |
| --- | --- | --- |
| CCc1nn(CCCC(=O)N2CCc3ccccc3C2)c(=O)c2cc3occc3n12 | inconclusive [inhibitor, single point] |  |
| Cc1cc(C)nc(/N=C(/NC(=O)Nc2cccc(Cl)c2)Nc2ccccc2)n1 |  | inactive: 19.5% |
| CC(C)CC(COCc1cccc(Cl)c1)N1CCN(C(=O)c2ccc(C(F)(F)F)cc2)CCC1=O (configuration not stated) | active: 13.1 µM |  |
| O=C(CNc1cccc(S(=O)(=O)N2CCOCC2)c1)Nc1ccccc1F |  | inactive: -0.246% |
| Cc1ccc2c(c1)N(C(=O)CCC(=O)NCCCN1CCOCC1)CC(C)O2 (configuration not stated) |  | inactive: 4.73% |
| Cc1ccc(N2CCN(C(=O)c3cc(-c4ccc(F)cc4)[nH]c3C)CC2C)cc1 (configuration not stated) | inconclusive [inhibitor, partial curve] |  |
| CN1CCN(S(=O)(=O)c2cccc(C(=O)NCc3ccccc3Cl)c2)CC1 |  | inactive: 5.95% |
| CC(=O)Nc1cc2c(cc1NC(=O)Cn1nc(-c3ccc(F)cc3)ccc1=O)OCCO2 |  | inactive: 22.8% |
| CCC(=O)/C=C1/Sc2ccc(OC)cc2N1CC | inconclusive [inhibitor, single point] |  |
| CCOc1ccc(NC(=O)CSc2nnc(C)n2C2CC2)cc1S(=O)(=O)N1CCCC1 | inconclusive [inhibitor, single point] |  |
| COc1cccc(-n2cc3c(c2-c2ccccc2)c(=O)n(C)c(=O)n3C)c1 | active: 5.22 µM |  |
| O=C(N/N=C\C=C\c1ccc([N+](=O)[O-])o1)c1cccs1 | inconclusive [inhibitor, full curve] |  |
| Cc1cccc(NC(=O)CCS(=O)(=O)c2ccc(Br)cc2)c1 |  | inactive: 23.8% |
| COC(=O)c1cc(=O)n(C2CC2)c(=NC2CC2)s1 | inconclusive [inhibitor, single point] |  |
| O=C(CSc1nc2ncccc2[nH]1)NCc1ccco1 |  | inactive: 15.7% |
| CC(=O)Nc1nnc(-c2ccco2)o1 |  | inactive: -7.85% |
| COc1ccc(NC(=O)COc2ccc(/C=C/c3cccc[n+]3C)cc2OC)cc1 | active: 0.928 µM |  |
| Cc1cccn2c(=O)c3cc(C(=O)NCCN4CCOCC4)c(=N)n(Cc4ccc(F)cc4)c3nc12 | inconclusive [inhibitor, full curve] |  |
| COc1cccc(C2CC(c3cccs3)=NN2C(=O)CSc2nc3ccccc3s2)c1OC (configuration not stated) | inconclusive [inhibitor, partial curve, poor fit] |  |
| CC(=O)Nc1ccc(S(=O)(=O)N2CCN(S(=O)(=O)c3ccc(F)c(F)c3F)CC2)cc1 |  | inactive: -4.2% |
| COc1ccccc1N1CCN(/N=C/c2cccc(OC)c2O)CC1 |  | inactive: 171% |
| Fc1ccc(NC(=S)NCCc2ccccn2)cc1 |  | inactive: 25.8% |
| COC(=O)CCCC1=CC2=C(c3ccccc3)C(=O)C(C)(OC(=O)C3CCCC3)C(=O)C2=CN1CCCCO (configuration not stated) | inconclusive [inhibitor, single point] |  |
| COC(=O)c1cn(Cc2c(C)cc(C)cc2C)nn1 | inconclusive [inhibitor, partial curve] |  |

| SMILES | Potency | activity change, negative = inhibition |
| --- | --- | --- |
| CCOC(=O)CC(NC(=O)C(Cc1ccc(N(CCCl)CCCl)cc1)NC(C)=O)C(=O)OCC (configuration not stated) | active: 9.28 µM |  |
| CC(C)c1ccc(SCc2noc(C(=O)NCC3CCCO3)c2C(=O)O)cc1 (configuration not stated) |  | inactive: 23.9% |
| O=C1Cc2ccccc2Sc2ccccc21 |  | inactive: 49.7% |
| O=C(/C=C/c1ccccc1)c1c[nH]c2ccccc12 |  | inactive: 228% |
| COc1ccc(/C=C(\NC(=O)c2cccs2)C(=O)NC(C)(C)C)cc1OC |  | inactive: 19.5% |
| O=C(Nc1cccc(F)c1)N(Cc1ccc(Cl)cc1)CC(O)C(F)(F)F (configuration not stated) | active: 8.28 µM |  |
| COCCN(C)C(=O)CCc1nnc(Cc2ccc(-c3ccccc3)cc2)o1 |  | inactive: -11.1% |
| COc1ccc(NC(=O)c2cc3c(COC(C)=O)cnc(C)c3oc2=Nc2cccc(C(=O)O)c2)c(OC)c1 | inconclusive [inhibitor, partial curve, poor fit] |  |
| CCOc1ccc(C(=O)Nc2ncccc2Cl)cc1 |  | inactive: 77.7% |
| Cc1cccc(C(C)Nc2ccc([N+](=O)[O-])cn2)c1 (configuration not stated) | inconclusive [inhibitor, single point] |  |
| COc1ccc(-c2noc(CNC(=O)c3ccc4c(c3)OCO4)n2)cc1OC |  | inactive: 10.3% |
| COc1ccc(N2CCN(c3ncnc4c3[nH]c3ccccc34)CC2)cc1 | inconclusive [inhibitor, single point] |  |
| CC1=C(C(=O)N2CCN(c3cc(C)ccc3C)CC2)C2(CCC(C)CC2)OC1=O (configuration not stated) | inconclusive [inhibitor, partial curve, poor fit] |  |
| CN1C(=O)N(CC(=O)N2CCN(S(=O)(=O)c3ccc(Cl)s3)CC2)C(=O)C12CCCCC2 | inconclusive [inhibitor, single point] |  |
| CCOC(=O)N1CCN(C(=O)c2cc(-c3ccc(OCC)cc3)nc3ccccc23)CC1 |  | inactive: 26.8% |
| O=C(CSc1nccc(=O)[nH]1)NC1CCCc2ccccc21 (configuration not stated) |  | inactive: -14.2% |
| COC(=O)CCCC1=CC2=CC(=O)C(C)(OC(=O)c3cccs3)C(=O)C2=CN1CC(C)C (configuration not stated) | inconclusive [inhibitor, single point] |  |
| Cc1ccc(NC(=O)Cn2cc(C(=O)C3CC3)c3ccccc32)c(C)c1 |  | inactive: 33.5% |
| COc1ccccc1CNC(=O)COc1ccc(S(=O)(=O)N2CCOCC2)cc1 | inconclusive [inhibitor, partial curve] |  |
| CC(C)(C)NC(=O)Cn1c(SCC(=O)Nc2nccs2)nc2ccccc21 | inconclusive [inhibitor, single point] |  |
| Cc1cc(C)nc(Sc2nc(C)nc3c2oc2ccccc23)n1 | inconclusive [inhibitor, partial curve, poor fit] |  |
| Cc1cccc(OCC(=O)Nc2ccc(C(=O)O)cc2NC(=O)COc2cccc(C)c2)c1 |  | inactive: 24% |
| CCOc1ccc([C@@H]2CC=C(C(=O)O)CN2S(=O)(=O)c2ccc(C)cc2)cc1 | inconclusive [inhibitor, partial curve, poor fit] |  |
| CC(C)CNc1nc(Oc2ccc(=O)n(C)n2)nc(N2CCOCC2)n1 | inconclusive [inhibitor, full curve, poor fit] |  |
